# Source: PubChem BioAssay (NCI)
# Some structures have more than one record in an assay (separate samples or runs), and their calls can disagree.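 Activity criterion: percent growth below 10, measured after cells in 96-well plates were exposed to a single compound concentration for 48 hours.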 Not every entry of the source has a single result; some have several. They are shown here; other results are not. An entry can have further records. This drug was run again and again over the years, at the concentration stated with the values; one value stands for one run. Counts like (3×) count equal records among those shown.
# Tests used:
# Assay in all cases: NCI-60 one-dose screen, 48 h (100 = growth as untreated, 0 = no growth, -100 = all killed)
# Conditions in all cases: 2.5 mM
# [1] = test system: OVCAR-3 ovarian
# [2] = test system: HS 578T breast
# [3] = test system: NCI/ADR-RES ovarian
# [4] = test system: T-47D breast
compound,measurement,setting,value
O=c1[nH]cc(F)c(=O)[nH]1,growth,[1]; runs of 1999,"active: -23.3, 3.53, -28.9, -73, 5.32, 1.76, -71, -94.9, -16.2, -23.7, -63.1, -73.8, -100, -44.1% and inactive: 19.5%, 12.8%"
same,growth,[1]; runs of 2000,"active: 8.9, -18.9, -59.8, -66.4%"
same,growth,[2]; runs of 1993,"inactive: 15.5, 40, 36.4, 19, 19.6, 37, 87.8, 19.2, 28, 41.1, 30.2, 43.4, 57.5, 49.1, 27.8, 43.9, 23.9, 38.4, 33.2, 33.7, 23.7, 28.3, 34.5, 34.9, 68.7, 34.4, 39.5, 85.7, 62.5, 39.1, 31.3, 37.5, 26.3, 56.1, 58.1, 54.5% and active: -9.9, 1.67, 7.87, -2.77, -6.06, 3.65%"
same,growth,[2]; runs of 1994,"inactive: 45.4, 32.7, 66.5, 45.7, 38.9, 21.2 (2×), 40.1, 26, 75.6, 42.2, 41.3, 68.9, 33.1, 46.8, 17.2, 48.4, 34.2, 38, 40.4, 44.3, 49.4, 31.8, 30.2, 91.1, 27.5, 33.7, 37.6, 47.5% and active: 8.79%, 3.29%, -8.16%"
same,growth,[2]; runs of 1995,"inactive: 71, 34.2, 31.1, 22.8, 53.9, 17.3, 15.4, 58.2, 38.7, 35.7, 62.7, 70.5, 47.9, 23.7, 40.9, 61.4, 47.5, 33.6, 36.4, 54.2, 21.4, 24.1, 44.3, 43.7, 43.1, 54.7, 27.5, 25.1, 55, 25.3, 72.1, 30, 22.9, 41.1, 60.4, 43.8% and active: -32%"
same,growth,[2]; runs of 1996,"inactive: 27.5, 53.1, 39.3, 38.9, 43.6 (2×), 35.8, 89.7, 26.9, 30.2, 39 (2×), 23, 46.9, 49.2, 43.2, 24.8, 56.5, 17.9, 16.7, 42.9, 71.4, 44, 34.4, 33.1, 53.9 (2×), 38.2, 29.5, 18.4, 20.9, 41.9 (2×), 17.1, 12.9, 40.3, 44.4, 63.1, 48.4, 56.6, 54.8, 68.6, 49.8, 26.2, 68.8, 34.8, 47.7% and active: -14.5%, -10.5%, -35.9%"
same,growth,[2]; runs of 1997,"inactive: 17.9, 34.6, 51.4, 45.8, 30, 36.7, 52.4, 17.4, 53.6, 10.1, 14, 33.5, 32.3, 39.4 (2×), 39.8, 23.9, 49.2, 21.1, 52.1, 42.4, 23.1, 49.3, 43.6, 44.6, 24.8, 10.6, 35.1, 36.1, 40.6, 24.1% and active: 9.73, -0.597, -31.1, 4.16, -6.51, -12.1, -21.3%"
same,growth,[2]; runs of 1998,"inactive: 21.8, 50, 22.6, 42.8, 42.9, 35.9, 45.6, 37.5, 64.6, 65.5, 40.1, 47.4, 69.3% and active: -37.6, -12.8, -11.9, -28.5, -25.5, -17.1%"
same,growth,[2]; runs of 1999,"inactive: 57.4, 15.4, 40.1, 54.6, 18.5, 15% and active: -12, 8.89, -38.2, -53, -16.1, 8.08, 0.852, 3.85, -65.5, -48.5, 2.48%"
same,growth,[2]; runs of 2000,"active: 1.69%, -29.3% and inactive: 22.1%, 13.5%"
same,growth,[3]; runs of 1993,"inactive: 34.9, 25.8, 41.4, 24.4, 21.7, 29.7, 24.9, 30.8 (2×), 22.6, 23.3, 28.5, 35.6 (2×), 43, 38.4, 26.9 (2×), 46.9, 10.6, 25.9, 36 (2×), 36.8 (2×), 32.7, 27.5, 19.2 (2×), 32, 10.4, 22.9, 22.7, 16.8, 39.3, 98.5, 32.9, 42.6, 30.6, 34, 36.9, 40.2% and active: 7.81, 7.84, 2.63, 9.61%"
same,growth,[3]; runs of 1994,"inactive: 32.7, 16.4, 30.9 (2×), 27.3, 29.2, 33.8, 13.3, 23.2 (2×), 47.1, 37.8, 38.8, 11.8, 23.8, 27.2, 14.8, 38, 53.8, 16.1, 27.4, 14.1, 41.6, 45.8, 45.6, 18.7, 37.4, 24.8, 21, 22.8, 19.2, 33.2% and active: 6.71%, 0.972%"
same,growth,[3]; runs of 1995,"inactive: 40, 20.3, 18.4, 24.8, 32.4, 37.9, 27.3, 28.8, 30, 40.9 (3×), 32.5, 32.1, 33.8, 21.4, 14.8, 27.2, 19, 23.7, 20.4, 24.7, 27.1, 31.2, 23, 18.7, 26.6, 17.2, 21.9, 19.3, 30.6, 23.9, 24.6, 38.2% and active: -36.4, -34.4, -46.3, 9.51%"
same,growth,[3]; runs of 1996,"inactive: 37.8, 27.3, 37.4, 37.6, 29.2, 26 (3×), 24.8, 14, 23.7, 28.2, 23, 27.2, 29, 37.2, 28.5, 10.9, 29.9, 34.6, 31.8 (2×), 36.4, 33.2, 13.2, 32.5, 10.4, 21.7, 26.3, 25.2, 18.1, 23.4, 26.5, 24.1, 11.4, 34.8, 42.1, 16.6, 32.9, 19.6, 31.9, 47.9, 36, 25.8, 41.1, 16.9, 34.4, 44% and active: -56.5, -8.17, 0.36, 4.18, 7.16, 4.23, 8.5, 6.02%"
same,growth,[3]; runs of 1997,"inactive: 23 (2×), 32.5, 41.8, 32.8, 18.2, 20.2, 32, 51.1, 37.5, 26.3, 13, 25.3, 23.7, 19.4, 18.8, 18.5, 13.2, 31.7, 11.1, 17.2, 36.1, 29.5, 26, 36.6, 36.9, 40.9, 31.9, 24.7 (2×), 30.3, 40.8, 33, 33.6, 36.2% and active: -6.72, 4.7, -5.35, 6.6, 5.81, 7.62, 8.5%"
same,growth,[3]; runs of 1998,"inactive: 52.3, 45.7, 17.5, 32.7, 29.6, 36.9, 27.4, 31, 34.2, 26.3, 29.4, 36.7, 25.7, 22.5, 44.2, 24 (2×), 38.9, 33.7, 44.6, 25.4, 28.1, 18, 46% and active: -27.1%, 8.1%"
same,growth,[3]; runs of 1999,"inactive: 27, 25.5, 14.6, 25.7, 27.9, 11.8% and active: -2.02, -21.2, -11.2, 1.47, 6.06, -7.64, 1.48, -78, 4.7, 2.43, 7.57%"
same,growth,[3]; runs of 2000,"active: 2.91, 4.58, 1.23, 1.44%"
same,growth,[4]; runs of 1993,"inactive: 50.1, 32.1, 43, 32.9, 25.9, 41.4 (2×), 31.1, 37.3, 10.1, 40.4, 30.6, 11.2, 34.3, 22.8, 42.9, 44.9, 15.7, 12.4, 18.8, 47.5, 15.5, 29, 31, 30.1, 26.6, 102, 17.9, 55.6, 14, 14.8, 20.3, 45.2, 22.3, 27.1, 40.1, 16.9% and active: 6.26, 2.2, -2.19, -4.66, 5.47, 7.76, -8.45, 7.56%"
same,growth,[4]; runs of 1994,"inactive: 38.9, 36.9, 34.8 (2×), 22.7, 32.5, 34.6, 26, 22.5, 39.1, 63.5, 27.5, 33.5, 54.4, 20.9, 26.2, 39.8, 15.6, 39, 27.1, 36.8, 36.6, 19.6, 24, 49.9, 16.8, 24.6, 39.2, 19.3, 37.3% and active: 3.78%, 4.95%, -9.13%"
same,growth,[4]; runs of 1995,"inactive: 36, 30, 11.3, 44.6, 25.6, 47.3, 29.9, 19.5, 10.7, 43.6, 35, 11.6, 21.8, 32.9, 21.7, 63.5, 16.9, 25.8, 41.9, 45.3, 37.2, 26.7, 26.8, 34.1, 15.9, 21.4, 24.3, 18.4, 32.7, 15, 40.1, 31.6, 17.2, 21, 20% and active: -2.15, -10.7, 9.29, 9.73, 4.93, 8.4, 8.38, 8.2, -10.3%"
same,growth,[4]; runs of 1996,"active: -0.744, -1.42, 8.02, 8.2, 6, -2.91% and inactive: 19.3, 21.4, 27 (2×), 33.6, 14.9, 29.6, 34.8, 40.8, 27.7, 24, 28.9, 21.2, 26.8, 25, 48.3, 25.1, 42.9, 41.9, 27.2, 40.2, 25.9, 23.7, 25.8 (2×), 27.9, 19.4, 27.4, 21.5, 23.1, 29.7, 35.6, 34.6, 37.8, 27.1, 28.2, 28.1, 49.2, 35.2, 87.8, 22.5%"
same,growth,[4]; runs of 1997,"inactive: 18, 22.7, 42, 35, 16.5, 26.9, 31.8, 14.4, 17.5, 38.6, 45 (2×), 18.4, 29.1, 35.4, 34.5, 29.4, 31.3, 36, 23.1, 21.3, 31.7, 17.6, 10.6, 12.4, 32, 29, 18.5, 23.3, 25.1, 27.1, 16.2, 40.9, 13.8, 26.4, 28.7% and active: -35, 4.69, 2.19, -37.7%"
